In PubChem BioAssay AID686970 (National Center for Advancing Translational Sciences (NCATS), 2013):
Screen size: about 360,000 compounds; about 6,000 (1.7%) were called active. Inconclusive means that the source gave no clear call. Such entries were picked first, then a sample of the others. Calls come from the whole dose curve; as a rule, active = well fitted cell-killing curve with a large enough effect; inconclusive = small, poorly fitted or top-dose-only effect, or effect the other way; inactive = flat fitted curve, though single readings scatter. Potencies of inconclusive entries are left out as doubtful fits.

experiment: qHTS for induction of synthetic lethality in tumor cells producing 2HG: qHTS for the HT-1080-NT fibrosarcoma cell line; details: HT-1080-NT fibrosarcoma viability, CellTiter-Glo ATP luminescence, 48 h; activity, negative = less viability: at 46.1 µM (top of the series);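 note: NT is the 2HG producing partner of a matched IDH1 knockdown line; nearly all actives have a fitted effect of over 55% in size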;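 for activity, negative = less viability: 0% = DMSO-treated cells and -100% = media-only wells without cells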
Summary of the method: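 Viability by CellTiter-Glo luminescence after 48 h compound exposure at 37C of HT-1080-NT cells (750/well, RPMI, 5% FBS). % activity scaled between DMSO wells and medium-only wells, then curve-fitted and categorized by curve class.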
Potency is the fitted concentration of half-maximal effect; tags give direction and shape of the fitted curve.

Row | SMILES | Potency | activity, negative = less viability
1 | Cc1ccc(CN2CC3CC(C2)c2cccc(=O)n2C3)cc1 (stereo not drawn) | inconclusive [cytotoxic, single point] | 
2 | CC(=O)OC12COC1CC(O)C1(C)C(=O)C(O)C3=C(C)C(O)CC(O)(C(OC(=O)c4ccccc4)C21)C3(C)C (stereo not drawn) | inconclusive [cytotoxic, full curve] | 
3 | Oc1ccc2c3c1OC1c4[nH]c5ccccc5c4C[C@@]4(O)C(C2)N(CC2CC2)CC[C@]314 (stereo partly drawn) | inconclusive [cytotoxic, single point] | 
4 | CCCNS(=O)(=O)c1ccc(OCC(=O)N2CCN(Cc3ccc4c(c3)OCO4)CC2)c(C)c1 | active: 11.6 µM | 
5 | Nc1c(C(=O)NCCN2CCOCC2)c2nc3ccccc3nc2n1Cc1ccccc1 |  | inactive: -5.78%
6 | C[N+]12CCC(CC1)C(OC(=O)C(O)(c1ccccc1)c1ccccc1)C2 (stereo not drawn) | inconclusive [rising, full curve, poor fit] | 
7 | CCCCn1nnnc1C(c1cccc(OC)c1OC)N1CCC2(CC1)C(=O)NCN2c1ccccc1 (stereo not drawn) | inconclusive [cytotoxic, single point] | 
8 | C[N+](C)(C)CC1CCCC(C[N+](C)(C)C)C1=O (stereo not drawn) | inconclusive [cytotoxic, single point] | 
9 | CC(=NCc1cccnc1)c1c(O)n(C2CCCCC2)c(=O)[nH]c1=O |  | inconclusive: -3% [cytotoxic]
10 | COc1c(O)ccc2c1-c1c3c(cc4c1C(C2)N(C)CC4)OCO3 (stereo not drawn) | inconclusive [rising, single point] | 
11 | COC(=O)C1=C(c2ccc3ccccc3c2)C[C@@H]2CC[C@H]1N2C(=O)NCC1CC1 |  | inactive: -3.12%
12 | COc1cc([N+](=O)[O-])c2nc(C)ccc2c1[N+](=O)[O-] | inconclusive [cytotoxic, single point] | 
13 | CN(C)CCCOc1nn(Cc2ccccc2)c2ccccc12 | inconclusive [cytotoxic, single point] | 
14 | COC(=O)C1=C(c2cc3ccccc3s2)C[C@@H]2CC[C@H]1N2C(=O)N1CCC(O)CC1 |  | inactive: 19.6%
15 | NC(N)=N/N=C/c1ccc(N(c2ccccc2)c2ccccc2)cc1 | inconclusive [cytotoxic, single point] | 
16 | COc1ccc(-n2c(C)nc3cc(C(=O)N4CCC5(CC4)OCCO5)ccc32)cc1 | inconclusive [cytotoxic, single point] | 
17 | CC(O)(CS(=O)(=O)c1ccccc1)C(=O)Nc1ccc(C(F)(F)F)cc1 (stereo not drawn) |  | inconclusive: -30.2% [cytotoxic]
18 | C=CCNC(=S)Nc1ccc(OC(=O)Nc2ccc(Cl)c(Cl)c2)cc1 |  | inactive: -1.9%
